# PubChem BioAssay (NCI)
# “And” between values parts separate entries of the source, which are not always exact repeats. Equal entries are not always repeated.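 These data come from cells grown in 96-well plates and exposed to compound for 48 hours at five concentrations. Here, GI50 denotes the concentration required for 50% inhibition of growth. TGI marks complete inhibition of growth.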 Numbered stars: 1 amine (or outer) side, 2 acyl side, 3 side chain; on linkers, the order of the positions; unused ones are H or OH. Bridge positions count the residues as written; N and C are the ends. Square brackets hold non-standard residues; d marks the D form. Peptide text beside a SMILES is read from it. X32 = CC[C@H](C)[C@@H](N[*:1])[C@@H](O)CC(=O)O[C@H](C(=O)[C@H](C)C(=O)[*:2])C(C)C; NMeY = CN[C@@H](Cc1ccc(O)cc1)C(=O)O
# System: NCI-H322M lung
# Assay: inhibition of tumour cell growth, NCI panel, 48 h
SMILES,TGI,GI50
CC1(C)OCC(CO)(CO)CO1,> 100 µM,
C[N+](C)(C)CC(=O)N/N=C(\Cc1nc2ccc([N+](=O)[O-])cc2[nH]c1=O)C(=O)Nc1nc2ccc([N+](=O)[O-])cc2s1,> 100 µM,
ICC1CCCO1 (configuration not stated),> 100 µM,
CCOc1cc(-c2nncn2C)ccc1Nc1ncc2cc(C)nc(NCC(C)(C)C)c2n1,> 100 µM,> 100 µM
COc1ccc(N2C(=O)C(Cl)C2c2cc3cc(Br)ccc3nc2Cl)cc1 (configuration not stated),> 25 µM,
C[C@@H]1S[C@H](c2c(F)cccc2Cl)n2c1nc1ccccc12,37 µM,
O=C(O)c1ccc2c(c1)C(=O)N(c1ccc(S(=O)(=O)c3ccc(N4C(=O)c5ccc(C(=O)O)cc5C4=O)cc3)cc1)C2=O,> 100 µM,
CNc1cc([N+](=O)[O-])ccc1C(=O)N1CCC[C@H]1CO,> 100 µM,
CC[C@H](C)[C@H]1NC(=O)[C@@H](N)[C@@H](C)OC(=O)[C@H](Cc2ccc(OC)cc2)N(C)C(=O)[C@@H]2CCCN2C(=O)[C@H](CC(C)C)NC(=O)[C@@H](C)C(=O)[C@H](C(C)C)OC(=O)C[C@@H]1O (H-T[X32]LP[NMeY](Me); ester 1-C),> 100 µM,
Cc1cc(O)ccc1C1=NN(c2ccc(S(N)(=O)=O)cc2)C(=O)CC1,> 100 µM,> 50 µM and 54.7 µM
